# Source: the supplement of paper PMC3334620
# In all, about 33,000 sequences were measured (“E-score (-0.5 to 0.5)”: median about -0.035, highest 2% from about 0.34 on). Some of the results follow.
# Molecular target: T1, Mot3 (UniProt P54785)
# T1 sequence: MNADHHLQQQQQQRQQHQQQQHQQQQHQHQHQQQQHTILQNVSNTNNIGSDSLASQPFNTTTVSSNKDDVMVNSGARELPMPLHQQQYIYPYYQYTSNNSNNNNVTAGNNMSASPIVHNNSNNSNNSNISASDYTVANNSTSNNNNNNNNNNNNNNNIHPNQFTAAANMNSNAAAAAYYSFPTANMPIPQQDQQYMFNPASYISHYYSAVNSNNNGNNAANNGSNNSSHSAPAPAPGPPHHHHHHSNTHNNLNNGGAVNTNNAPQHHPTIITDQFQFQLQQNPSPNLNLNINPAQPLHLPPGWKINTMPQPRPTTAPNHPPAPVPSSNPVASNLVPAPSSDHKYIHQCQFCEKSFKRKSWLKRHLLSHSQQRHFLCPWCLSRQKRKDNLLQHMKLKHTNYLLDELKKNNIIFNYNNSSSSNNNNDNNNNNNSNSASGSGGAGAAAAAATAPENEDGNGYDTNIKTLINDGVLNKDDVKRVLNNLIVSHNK
# Test: PBM E-score (8-mer binding enrichment) (E-score (-0.5 to 0.5)); higher = stronger / more preferred TF binding; most listed sequences are background and not binding sites
# Details: protein concentration: 200 nM; construct: GST-full length
# Method in brief: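 Full-length yeast transcription factors or their DNA-binding domains, GST-tagged and expressed with PURExpress, were applied at about 100-200 nM to universal all-10-mer Agilent arrays. These arrays had been made double-stranded by primer extension on fresh or once-stripped slides. Detection used fluorescent anti-GST, normalisation used masliner, and E-scores for ungapped eight-base words pooled with reverse complements came from the Universal PBM Analysis Suite.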
row,Sequence,PBM E-score
1,AGATCGCC,-0.138
2,CAGAACGA,-0.058
3,CATAGGAC,-0.0353
4,CGGCTGCA,-0.252
5,GTTCTACA,0.302
6,GGGGAAAA,-0.211
7,AGAAACCA,-0.107
8,ATCCTAGC,-0.0862
9,AGCTATTA,-0.00789
10,TCTGACAA,0.122
11,CCGTTCCA,-0.133
12,CGCAACTA,-0.00082
13,CGTTAACG,0.1
14,CAAGAACC,0.0697
15,TGCCGTAA,-0.0574
16,GAAGGCGC,0.362
17,ATAATTCA,0.15
18,GAGCCTAA,0.278
19,GACTCGTA,-0.0701
20,ACACATAG,0.139
21,AGAGTGTG,0.154
22,ACAGTTAG,0.0261
23,CAAAGCGG,-0.0413
24,AGCGTCAT,-0.0296
25,CACTATGG,-0.048

row,Sequence,PBM E-score
1,CTTTACGC,0.33
2,CAATCCAG,-0.15
3,CAAATCTG,-0.0901
4,CTCCCCGA,-0.153
5,GATTAAGC,-0.183
6,ACATAAGT,0.235
7,AAACTTCA,0.126
8,AAAGTTCT,-0.205
9,ACGGCGAT,0.00109
10,ACGCGACG,0.266
11,CACTACAA,0.186
12,AATTTAGC,-0.12
13,CCGACCTA,-0.203
14,GAAACTGA,-0.103
15,AAAGACCG,0.0522
16,CGTCGCTA,-0.0563
17,TCGGTCAA,0.0157
18,CGCCTTGA,-0.0273
19,GCACTCCC,-0.112
20,ATCGAGAT,-0.238
21,AAAGTAAA,0.186
22,CTTTTCCC,-0.0316
23,ATTGCATC,-0.00145
24,ATGAGTAA,-0.051
25,AGAAAGTG,-0.0456

row,Sequence,PBM E-score
1,AACATGGC,0.268
2,AATGGGAA,-0.121
3,ATACAATG,0.00795
4,GGGGCACC,-0.152
5,AAGAAGAT,0.0804
6,CGGTGAAA,-0.0615
7,GCTCCACA,-0.0932
8,CAACTGAC,-0.0668
9,ACGAAAAG,-0.00404
10,GAAAAAGC,0.0635
11,GTACATAC,0.313
12,TCTGCAAA,0.0287
13,AGAGCCTA,0.177
14,AGCGCCGA,-0.311
15,ATCACAAC,0.116
16,AAGAAATA,0.131
17,ATGCTATA,-0.013
18,CTCCTTTA,0.15
19,GCAATAGA,-0.018
20,AACACGTT,0.365
21,TGTAACAA,0.28
22,CAGGTGGA,-0.0981
23,ACTTTCAT,-0.13
24,AATAGGGC,0.0927
25,ATTCTCAG,-0.0794

row,Sequence,PBM E-score
1,ATCAGAAA,0.0805
2,AACGCCCC,-0.0905
3,ATCTTAAG,-0.14
4,CTTAACTA,0.139
5,CTAGTGAG,-0.236
6,CGTCTGAC,-0.068
7,ATCTTAAA,-0.0684
8,ATACTTCA,-0.124
9,ACGGCTCT,-0.196
10,CAATAAGA,-0.049
11,ATCCCCGA,-0.15
12,CAAGCGGA,-0.0611
13,CCTTGCTA,0.183
14,GAGCCCCC,-0.247
15,AATCCTTG,0.0944
16,GGAGGCGA,-0.194
17,AGCTGAGC,-0.229
18,CTGCGATC,-0.191
19,AAAGGCAT,0.39
20,AAGTCAAC,0.0384
21,CAGCGACC,-0.299
22,AATATCAC,-0.107
23,AGTTCTCG,-0.137
24,TCGCCAAA,-0.196
25,ATTTGCTG,-0.0338

row,Sequence,PBM E-score
1,CCTCATTA,0.13
2,AGCCGACA,-0.0661
3,CTATCTCC,-0.0479
4,AATCTTCG,0.0651
5,CGGTGATC,-0.00595
6,TGAACGCA,0.0508
7,CCTTCTTC,0.0135
8,AATCCTCC,-0.315
9,ACGGCTGA,-0.181
10,AACTGTCG,0.00222
11,AGCGACAC,0.071
12,ACGGACGG,-0.26
13,CGATAGGA,0.0217
14,CACAGCTA,0.118
15,CATTACGC,0.27
16,ATGTGGGC,-0.0442
17,CGTCGCCC,-0.0459
18,CCCCAGCC,-0.276
19,GCTCCAGA,-0.178
20,AATCCCAC,-0.112
21,ATGGAAGA,-0.0964
22,ATGTATAA,0.256
23,ATAAGCAT,-0.109
24,CAGGTGGG,-0.0969
25,CAAGATAC,0.23

row,Sequence,PBM E-score
1,GGAGATTA,-0.00301
2,GAAAACAA,0.168
3,TGGGCCAA,-0.0942
4,AAGCGATG,-0.038
5,CAGATATG,-0.119
6,ATTCTAGC,-0.127
7,TCAAAGAA,0.169
8,CATAATAC,0.158
9,GTGGGTTA,-0.0837
10,ATACTAAT,-0.00831
11,GCCATGCC,-0.183
12,GCATTGGA,-0.234
13,GAAGGGTA,0.0495
14,GGACGAAA,0.00917
15,GATCTTGA,-0.134
16,CCAACAAC,0.168
17,AAGCGCCG,-0.0574
18,ATGTTTGG,-0.00108
19,CCTCTACA,0.184
20,AAAGTTGA,-0.0636
21,AGCATTTC,-0.051
22,CACTTAAA,0.0503
23,CTTCGGAA,-0.181
24,ATACTTCG,-0.0852
25,GACCCCCC,-0.285

row,Sequence,PBM E-score
1,AGGCTCAC,0.297
2,TCTTGGAA,0.0908
3,AGGCCACC,0.093
4,AGAATAAT,-0.00164
5,TAAAAGCA,-0.123
6,CTCACAAA,0.0174
7,CGCGTGGC,-0.155
8,AATTCAGG,0.166
9,ATGGTTGA,-0.153
10,ACGGCCAC,-0.168
11,CACAACTA,0.199
12,AATCTACG,0.158
13,GTGTGAGA,-0.0716
14,AATCAATG,0.0568
15,GGTGCTAA,-0.0828
16,TAACAATA,0.292
17,CAGTGTAC,0.0758
18,CGGAATAG,-0.201
19,TATCTTCA,0.0832
20,CGGTTGCC,0.162
21,CACAAGCG,0.024
22,GCTCCTGA,-0.157
